Results reported in PMC9606269.

B1: Wild-type human PAFR fused at its C terminus to Venus (PAFR-Venus) or to Renilla luciferase 8 (PAFR-Rluc) [human] / Human GRK3 fused to Renilla luciferase [human] (parent)
chain 1: MADLEAVLADVSYLMAMEKSKATPAARASKRIVLPEPSIRSVMQKYLAERNEITFDKIFNQKIGFLLFKDFCLNEINEAVPQVKFYEEIKEYEKLDNEEDRLCRSRQIYDAYIMKELLSCSHPFSKQAVEHVQSHLSKKQVTSTLFQPYIEEICESLRGDIFQKFMESDKFTRFCQWKNVELNIHLTMNEFSVHRIIGRGGFGEVYGCRKADTGKMYAMKCLDKKRIKMKQGETLALNERIMLSLVSTGDCPFIVCMTYAFHTPDKLCFILDLMNGGDLHYHLSQHGVFSEKEMRFYATEIILGLEHMHNRFVVYRDLKPANILLDEHGHARISDLGLACDFSKKKPHASVGTHGYMAPEVLQKGTAYDSSADWFSLGCMLFKLLRGHSPFRQHKTKDKHEIDRMTLTVNVELPDTFSPELKSLLEGLLQRDVSKRLGCHGGGSQEVKEHSFFKGVDWQHVYLQKYPPPLIPPRGEVNAADAFDIGSFDEEDTKGIKLLDCDQELYKNFPLVISERWQQEVTETVYEAVNADTDKIEARKRAKNKQLGHEEDYALGKDCIMHGYMLKLGNPFLTQWQRRYFYLFPNRLEWRGEGESRQNLLTMEQILSVEETQIKDKKCILFRIKGGKQFVLQCESDPEFVQWKKELNETFKEAQRLLRRAPKFLNKPRSGTVELPKPSLCHRNSNGL
chain 2: MEPHDSSHMDSEFRYTLFPIVYSIIFVLGVIANGYVLWVFARLYPCKKFNEIKIFMVNLTMADMLFLITLPLWIVYYQNQGNWILPKFLCNVAGCLFFINTYCSVAFLGVITYNRFQAVTRPIKTAQANTRKRGISLSLVIWVAIVGAASYFLILDSTNTVPDSAGSGNVTRCFEHYEKGSVPVLIIHIFIVFSFFLVFLIILFCNLVIIRTLLMQPVQQQRNAEVKRRALWMVCTVLAVFIICFVPHHVVQLPWTLAELGFQDSKFHQAINDAHQVTLCLLSTNCVLDPVIYCFLTKKFRKHLTEKFYSMRSSRKCSRATTDTVTEVVVPFNQIPGNSLKN
B2: Halo-tagged wild-type human platelet-activating factor receptor [modified: Halo-tag covalently labelled with HaloTag Alexa Fluor 488 (imaging) or HaloTag Alexa Fluor 660 (blots); Halo-tag covalently labelled with HaloTag Alexa … (parent)
chain: B1 chain 2
B3: Wild-type human PAFR fused at its C terminus to Venus (PAFR-Venus) or to Renilla luciferase 8 (PAFR-Rluc) [human] / Human GRK2 fused to Renilla luciferase [human] (parent)
chain 1: MADLEAVLADVSYLMAMEKSKATPAARASKKILLPEPSIRSVMQKYLEDRGEVTFEKIFSQKLGYLLFRDFCLNHLEEARPLVEFYEEIKKYEKLETEEERVARSREIFDSYIMKELLACSHPFSKSATEHVQGHLGKKQVPPDLFQPYIEEICQNLRGDVFQKFIESDKFTRFCQWKNVELNIHLTMNDFSVHRIIGRGGFGEVYGCRKADTGKMYAMKCLDKKRIKMKQGETLALNERIMLSLVSTGDCPFIVCMSYAFHTPDKLSFILDLMNGGDLHYHLSQHGVFSEADMRFYAAEIILGLEHMHNRFVVYRDLKPANILLDEHGHVRISDLGLACDFSKKKPHASVGTHGYMAPEVLQKGVAYDSSADWFSLGCMLFKLLRGHSPFRQHKTKDKHEIDRMTLTMAVELPDSFSPELRSLLEGLLQRDVNRRLGCLGRGAQEVKESPFFRSLDWQMVFLQKYPPPLIPPRGEVNAADAFDIGSFDEEDTKGIKLLDSDQELYRNFPLTISERWQQEVAETVFDTINAETDRLEARKKAKNKQLGHEEDYALGKDCIMHGYMSKMGNPFLTQWQRRYFYLFPNRLEWRGEGEAPQSLLTMEEIQSVEETQIKERKCLLLKIRGGKQFILQCDSDPELVQWKKELRDAYREAQQLVQRVPKMKNKPRSPVVELSKVPLVQRGSANGL
chain 2: B1 chain 2
B4: Wild-type human PAFR fused at its C terminus to Venus (PAFR-Venus) or to Renilla luciferase 8 (PAFR-Rluc) [human] / Human β-arrestin1 tagged with Rluc [human] (parent)
chain 1: MGDKGTRVFKKASPNGKLTVYLGKRDFVDHIDLVDPVDGVVLVDPEYLKERRVYVTLTCAFRYGREDLDVLGLTFRKDLFVANVQSFPPAPEDKKPLTRLQERLIKKLGEHAYPFTFEIPPNLPCSVTLQPGPEDTGKACGVDYEVKAFCAENLEEKIHKRNSVRLVIRKVQYAPERPGPQPTAETTRQFLMSDKPLHLEASLDKEIYYHGEPISVNVHVTNNTNKTVKKIKISVRQYADICLFNTAQYKCPVAMEEADDTVAPSSTFCKVYTLTPFLANNREKRGLALDGKLKHEDTNLASSTLLREGANREILGIIVSYKVKVKLVVSRGGLLGDLASSDVAVELPFTLMHPKPKEEPPHREVPENETPVDTNLIELDTNDDDIVFEDFARQRLKGMKDDKEEEEDGTGSPQLNNR
chain 2: B1 chain 2

Variants of: B1
Experiment: BRET between GRK3-Rluc and PAFR-Venus
Settings: with Human GRK3 fused to Renilla luciferase [human]; PAF (1 μM); parent: 100; read off a plot

| percent of parent | Variant |
| --- | --- |
| 180 % WT | chain 2 MEPHDSSHMDSEFRYTLFPIVYSIIFVLGVIANGYVLWVFARLYPCKKFNEIKIFMVNLTMADMLFLITLPLWIVYYQNQGNWILPKFLCNVAGCLFFINTYCSVAFLGVITYNRFQAVTRPIKTAQANTRKRGISLSLVIWVAIVGAASYFLILDSTNTVPDSAGSGNVTRCFEHYKKGSVPVLIIHIFIVFSFFLVFLIILFCNLVIIRTLLMQPVQQQRNAEVKRRALWMVCTVLAVFIICFVPHHVVQLPWTLAELGFQDSKFHQAINDAHQVTLCLLSTNCVLDPVIYCFLTKKFRKHLTEKFYSMRSSRKCSRATTDTVTEVVVPFNQIPGNSLKN [chain 2 E178K] |
| 150 % WT | chain 2 MEPHDSSHMDSEFRYTLFPIVYSIIFVLGVIANGYVLWVFARLYPCKKFNEIKIFMVNLTMADMLFLITLPLWIVYYQNQGNWILPKFLCNVAGCLFFINTYCSVAFLGVITYNRFQAVTRPIKTAQANTRKRGISLSLVIWVAIVGAASCFLCLDSTNTVPDSAGSGNVTRCFEHYEKGSVPVLIIHIFIVFSFFLVFLIILFCNLVIIRTLLMQPVQQQRNAEVKRRALWMVCTVLAVFIICFVPHHVVQLPWTLAELGFQDSKFHQAINDAHQVTLCLLSTNCVLDPVIYCFLTKKFRKHLTEKFYSMRSSRKCSRATTDTVTEVVVPFNQIPGNSLKN [chain 2 Y151C I154C] |

Variants of: B2
Experiment: cysteine cross-linking with CuP, SDS-PAGE blot quantification of cell surface Halo-PAFR
Settings: parent: 5, read off a plot

| screen value | Variant |
| --- | --- |
| 50% | MEPHDSSHMDSEFRYTLFPIVYSIIFVLGVIANGYVLWVFARLYPCKKFNEIKIFMVNLTMADMLFLITLPLWIVYYQNQGNWILPKFLCNVAGCLFFINTYCSVAFLGVITYNRFQAVTRPIKTAQANTRKRGISLSLVIWVAIVGAASYFLCLDSTNTVPDSAGSGNVTRCFEHYEKGSVPVLIIHIFIVFSFFLVFLIILFCNLVIIRTLLMQPVQQQRNAEVKRRALWMVCTVLAVFIICFVPHHVVQLPWTLAELGFQDSKFHQAINDAHQVTLCLLSTNCVLDPVIYCFLTKKFRKHLTEKFYSMRSSRKCSRATTDTVTEVVVPFNQIPGNSLKN [chain 1 I154C] |
| 50% | MEPHDSSHMDSEFRYTLFPCVYSIIFVLGVIANGYVLWVFARLYPCKKFNEIKIFMVNLTMADMLFLITLPLWIVYYQNQGNWILPKFLCNVAGCLFFINTYCSVAFLGVITYNRFQAVTRPIKTAQANTRKRGISLSLVIWVAIVGAASYFLILDSTNTVPDSAGSGNVTRCFEHYEKGSVPVLIIHIFIVFSFFLVFLIILFCNLVIIRTLLMQPVQQQRNAEVKRRALWMVCTVLAVFIICFVPHHVVQLPWTLAELGFQDSKFHQAINDAHQVTLCLLSTNCVLDPVIYCFLTKKFRKHLTEKFYSMRSSRKCSRATTDTVTEVVVPFNQIPGNSLKN [chain 1 I20C] |
| 42% | MEPHDSSHMDSEFRYTLFPIVYSIIFVLGVIANGYVLWVFARLYPCKKFNEIKIFMVNLTMADMLFLITLPLWIVYYQNQGNWILPKFLCNVAGCLFFINTYCSVAFLGVITYNRFQAVTRPIKTAQANTRKRGISLSLVIWVAIVCAASYFLILDSTNTVPDSAGSGNVTRCFEHYEKGSVPVLIIHIFIVFSFFLVFLIILFCNLVIIRTLLMQPVQQQRNAEVKRRALWMVCTVLAVFIICFVPHHVVQLPWTLAELGFQDSKFHQAINDAHQVTLCLLSTNCVLDPVIYCFLTKKFRKHLTEKFYSMRSSRKCSRATTDTVTEVVVPFNQIPGNSLKN [chain 1 G147C] |
| 72% | MEPHDSSHMDSEFRYTLFPIVYSIIFVLGVIANGYVLWVFARLYPCKKFNEIKIFMVNLTMADMLFLITLPLWIVYYQNQGNWILPKFLCNVAGCLFFINTYCSVAFLGVITYNRFQAVTRPIKTAQANTRKRGISLSLVIWVAIVGAASCFLILDSTNTVPDSAGSGNVTRCFEHYEKGSVPVLIIHIFIVFSFFLVFLIILFCNLVIIRTLLMQPVQQQRNAEVKRRALWMVCTVLAVFIICFVPHHVVQLPWTLAELGFQDSKFHQAINDAHQVTLCLLSTNCVLDPVIYCFLTKKFRKHLTEKFYSMRSSRKCSRATTDTVTEVVVPFNQIPGNSLKN [chain 1 Y151C] |
| 50% | MEPHDSSHMDSEFRYTLFPIVYSIIFVLGVIANGYVLWVFARLYPCKKFNEIKIFMVNLTMADMLFLITLPLWIVYYQNQGNWILPKFLCNVAGCLFFINTYCSVAFLGVITYNRFQAVTRPIKTAQANTRKRGISLSLVIWVAIVGAASYFLILDSTNTVPDSAGSGNVTRCFEHYEKGSVPVLCIHIFIVFSFFLVFLIILFCNLVIIRTLLMQPVQQQRNAEVKRRALWMVCTVLAVFIICFVPHHVVQLPWTLAELGFQDSKFHQAINDAHQVTLCLLSTNCVLDPVIYCFLTKKFRKHLTEKFYSMRSSRKCSRATTDTVTEVVVPFNQIPGNSLKN [chain 1 I186C] |

Variants of: B3
Experiment: BRET between GRK2-Rluc and PAFR-Venus
Settings: with Human GRK2 fused to Renilla luciferase [human]; PAF (1 μM); parent: 100; read off a plot

| percent of parent | Variant |
| --- | --- |
| 170 % WT | chain 2 MEPHDSSHMDSEFRYTLFPIVYSIIFVLGVIANGYVLWVFARLYPCKKFNEIKIFMVNLTMADMLFLITLPLWIVYYQNQGNWILPKFLCNVAGCLFFINTYCSVAFLGVITYNRFQAVTRPIKTAQANTRKRGISLSLVIWVAIVGAASYFLILDSTNTVPDSAGSGNVTRCFEHYKKGSVPVLIIHIFIVFSFFLVFLIILFCNLVIIRTLLMQPVQQQRNAEVKRRALWMVCTVLAVFIICFVPHHVVQLPWTLAELGFQDSKFHQAINDAHQVTLCLLSTNCVLDPVIYCFLTKKFRKHLTEKFYSMRSSRKCSRATTDTVTEVVVPFNQIPGNSLKN [chain 2 E178K] |
| 120 % WT | chain 2 MEPHDSSHMDSEFRYTLFPIVYSIIFVLGVIANGYVLWVFARLYPCKKFNEIKIFMVNLTMADMLFLITLPLWIVYYQNQGNWILPKFLCNVAGCLFFINTYCSVAFLGVITYNRFQAVTRPIKTAQANTRKRGISLSLVIWVAIVGAASCFLCLDSTNTVPDSAGSGNVTRCFEHYEKGSVPVLIIHIFIVFSFFLVFLIILFCNLVIIRTLLMQPVQQQRNAEVKRRALWMVCTVLAVFIICFVPHHVVQLPWTLAELGFQDSKFHQAINDAHQVTLCLLSTNCVLDPVIYCFLTKKFRKHLTEKFYSMRSSRKCSRATTDTVTEVVVPFNQIPGNSLKN [chain 2 Y151C I154C] |

Variants of: B4
Experiment: BRET kinetics between PAFR-Venus and βarr1-Rluc
Settings: PAF (1 μM) injected at about 50 s, value read at the last time point, about 400 s, parent: 100, read off a plot

| percent of parent | Variant |
| --- | --- |
| 32 % WT | chain 2 MEPHDSSHMDSEFRYTLFPIVYSIIFVLGVIANGYVLWVFARLYPCKKFNEIKIFMVNLTMADMLFLITLPLWIVYYQNQGNWILPKFLCNVAGCLFFINTYCSVAFLGVITYNRFQAVTRPIKTAQANTRKRGISLSLVIWVAIVGAASYFLILDSTNTVPDSAGSGNVTRCFEHYEKGSVPVLIIHIFIVFSFFLVFLIILFCNLVIIRTLLMQPVQQQRNAEVKRRALWMVCTVLAVFIICFVPHHVVQLPWTLAELGFQDSKFHQAINDAHQVTLCLLSTNCVLDPVIYCFLTKKFRKHLTEKFYSMRSSRKCSRATTDAVTAVVVPFNQIPGNSLKN [chain 2 T324A E327A] |
